Drawing on paper PMC10735225, this text covers binding for one molecule.

Results are given in words; binding and its absence hold for the method and conditions named. Binding seen in cells or lysates may run through a third protein. Some binding calls cover weakened binding; strength is not graded here.

This assay has as its target T1, endogenous SPATA6 (mouse testis) (mouse (endogenous in mouse testis)) (UniProt Q3U6K5).
T1 sequence: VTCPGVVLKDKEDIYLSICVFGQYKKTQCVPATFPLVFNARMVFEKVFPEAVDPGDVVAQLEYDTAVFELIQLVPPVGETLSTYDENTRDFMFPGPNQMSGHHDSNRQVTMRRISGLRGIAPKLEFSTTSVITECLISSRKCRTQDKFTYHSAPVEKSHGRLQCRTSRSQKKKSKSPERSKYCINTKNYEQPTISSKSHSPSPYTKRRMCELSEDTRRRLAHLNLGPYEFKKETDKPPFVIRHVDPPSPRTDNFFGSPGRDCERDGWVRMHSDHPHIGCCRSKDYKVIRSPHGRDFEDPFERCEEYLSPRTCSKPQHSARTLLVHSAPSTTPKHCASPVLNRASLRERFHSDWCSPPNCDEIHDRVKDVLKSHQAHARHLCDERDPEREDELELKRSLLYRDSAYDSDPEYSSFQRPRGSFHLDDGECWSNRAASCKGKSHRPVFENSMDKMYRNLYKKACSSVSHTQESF
Briefly: co-IP; endogenous proteins in mouse testis lysates; 2 ug anti-SPATA6 antibody, rabbit IgG as negative control; Protein A/G agarose; western blot.

B1: endogenous CFAP52 (mouse testis) (protein, UniProt Q5F201-1 1-620)
chain: MEEQVLPELDVAELELQAVIGFNGHVPNGLKCHPDQEHLIYPLGCTVLIQAINTNEQNFLHGHGNNVSCVTISKEGDYIASGQVTFMGFKADIILWDFKKRELIARLSLHKGKIEALAFSPNDLYLVSLGGPDDGSVVVWSIAKRDAICGSPAAGLNVGNATSVVFSRCRDEMFVTAGNGTIRVWELDLPNRKIWPTECQTGQMKRIVLSTGMADDDSFFYLGTTTGDILKMNPKTKLLADTGPVKDKFSLGVSALRCLKMGGLLVGSGAGLLIFCKSPSYKPIKKVQLQGGITSITLRGEGHQFFVGTEESHIYRVNFTDFKETLIATCHFEAVQDIVFPFGTAELFATCAKKDIRVWHTMSKRELLRITVPNMTCHGIDFMRDGKSIISAWDDGKIRAFAPESGRLMYTINSAHRIGVTAIATTSDCKRIISGGGEGEVRVWQVGCQTQKLEEALKEHKSSVSCIRVKKNNEECVTASTDGTCIIWDLVRLRRNQMILANTLFQCVCYHPEEFQIITSGTDRKIAYWEVFDGSVIRELEGSLSGSINGMDITQEGGHFVTGGHDHLVKVWDYNEGEVTHVGVGHSGNIMAMRISPGNQYIVSVSADGAILRWKYPFAS
Turning to B1, the binding result was “binds”.
